This assay has as its system Plasmodium falciparum. Briefly: Primary screen in NF54 nanoGlo assay, in single point, at 2uM, 72h; a lower Z score goes with more inhibition. The assay is classed as functional, Erythrocyte. To be noted: timepoint 72 hour.

“And” between values parts separate entries of the source, which are not always exact repeats. Equal entries are not always repeated. Hit rate of the full screen: of about 150,000 compounds, about 540 (0.36%) showed an effect of 50% or more. The list shows a part of the results.

A word on the % Inhibition: it is the change of the read-out against control, counted positive when it falls.

In the case of `Cc1cc(C)[n+]2nc(-c3ccccc3)sc2c1C#N`, under “2 µM”, the “% Inhibition” value is 3% and 6%; the Z score is -0.54 and -0.73.

For the compound `Cc1ccc(NC(=O)c2ncn3c2C(=O)N(C2CC2)[C@](C)(C(=O)NC2CCCC2)C3)cc1Cl`, the “% Inhibition” value is listed as -2% and the Z score worked out at 0.29.

In the case of `CO[C@@H](C)C(=O)Nc1ccc(Br)c(Cl)c1F`, the “% Inhibition” value is reported as -5% and the Z score was determined as 1.02.

Regarding `CCCCN(Cc1nnc(C)s1)C1CCCC1`, the “% Inhibition” value is on record as -6% and the Z score is 1.07.

With `CCn1c(=O)c(N2CCC(C(=O)Nc3cccc(F)c3)CC2)c(C)n(-c2ccccc2)c1=O`, the “% Inhibition” value was determined as 4% and the Z score was -0.72.

In the case of `C[C@](O)(CNC(=O)NC1CCOCC1)c1cc2ccccc2o1`, the “% Inhibition” value is on record as -10% and the Z score stood at 1.76.

Turning to `C[C@H](O)CCN(C)c1ccc(Br)cn1`, the “% Inhibition” value is -13% and the Z score amounted to 2.01.

Consider `CC(NC(=O)CC1=CCCCC1)C1CCCN(C2CCC2)C1` (stereo unspecified), for which the “% Inhibition” value was 5% and the Z score was -0.59.

For `O=C(CCc1nc2ccccc2c(=O)[nH]1)N(CC1CC1)CC1CC1`, the “% Inhibition” value is listed as -6% and the Z score is 0.96.

Take `CCN(CC)S(=O)(=O)NCCOc1ccc(Cl)cc1`: the “% Inhibition” value was -6% and the Z score amounted to 0.86.

Turning to `O=C1C[C@@H](c2ccccc2)N(C(=O)CC(F)(F)F)CCN1`, the “% Inhibition” value is reported as -13% and the Z score is reported as 1.68.

On to `O=C(Nc1ccc(S(=O)(=O)Nc2nccs2)cc1)c1cnn2c1OCCC2`, for which the “% Inhibition” value is 2% and the Z score is -0.33.

`CC[C@](C)(NCCC(=O)N1CCOCC1)c1nccs1`: the “% Inhibition” value is recorded as -15% and the Z score amounted to 2.66.

With `Cc1ccc(CCNC(=O)c2ccc3c(c2)nc2n3CCCC2)cc1`, the “% Inhibition” value is on record as 9% and the Z score is -1.68.

Take `CCc1cc(N2CCO[C@H](c3nc(C(C)(C)C)cs3)C2)nc(-c2ccncc2)n1`: the “% Inhibition” value is on record as -8% and the Z score stood at 1.56.

In the case of `C[C@H]1CCCN(c2ccc(Cl)cc2NC(=O)c2coc(CN)n2)C1`, the “% Inhibition” value is -22% and the Z score was 2.42.

Regarding `O=C(NCCc1ccco1)c1cncc(Br)c1`, the “% Inhibition” value is -7% and the Z score was determined as 0.59.

As to `CNc1cccc(C(=O)Nc2nncs2)n1`, the “% Inhibition” value is listed as -13% and the Z score is reported as 1.62.

Consider `Cn1cc2c(NCc3cccc(COC4CCOCC4)c3)ncnc2n1`, for which the “% Inhibition” value is -14% and the Z score is 1.74.

`COc1ccc(NC(=O)CCC2CCN(Cc3ccc4c(c3)OCCO4)CC2)c(OC)c1`: the “% Inhibition” value is recorded as 0% and the Z score is on record as 0.01.

On to `CCCn1c(C)cnc1[C@H]1CCN(S(=O)(=O)c2cnn(CC)c2)C1`, for which the “% Inhibition” value was -9% and the Z score stood at 1.36.

On to `CCN(CC)C(=O)C1CCCN(C2CCC(=O)N(Cc3ccc(F)cc3F)CC2)C1` (stereo unspecified), for which the “% Inhibition” value is -10% and the Z score is given as 1.68.

Consider `CCOc1cncc(CNc2nnc(CC)o2)c1`, for which the “% Inhibition” value amounted to 1% and the Z score is given as -0.19.

Turning to `COC1(C)CN(Cc2cc(C)ns2)C1`, the “% Inhibition” value is recorded as 13% and the Z score is listed as -1.12.

For the compound `Cc1ccccc1CNC(C)(C)c1nnc2n1CCCC2`, the “% Inhibition” value is reported as -6% and the Z score is on record as 1.15.

Turning to `O=C(Nc1ccc2c(c1)OCCO2)N1CC(n2cnnc2[C@@H]2CCCO2)C1`, the “% Inhibition” value was -10% and the Z score amounted to 1.5.

`CN(Cc1nccn1C)c1ccc2cc[nH]c2n1`: the “% Inhibition” value is -14% and the Z score came out at 1.5.

Take `CN(C(=O)C(O)C1CCC1)C1CCN2CCOC1C2` (stereo unspecified): the “% Inhibition” value is -21% and the Z score was determined as 2.49.

On to `COc1cc(OC)cc(C(=O)Nc2cccc(NC(=O)c3cc(OC)cc(OC)c3)n2)c1`, for which the “% Inhibition” value is 16% and the Z score was -1.92.

`Cc1ncc(C(=O)N2CCC[C@@]2(c2c[nH]c3ccccc23)C(F)(F)F)c(C)n1`: the “% Inhibition” value is recorded as -8% and the Z score is recorded as 1.36.

Take `CCC(CC)(CNS(=O)(=O)c1cnn(C)c1)N(C)C`: the “% Inhibition” value was found to be 0% and the Z score was 0.05.

On to `C#CCCCC(=O)N(C)c1cccc(N(C)C(=O)CCCC#C)n1`, for which the “% Inhibition” value is recorded as 0% and the Z score is reported as 0.

With `Cc1cc(N(C)Cc2cnccn2)n2nc(C)cc2n1`, the “% Inhibition” value was -2% and the Z score was 0.23.

As to `CN1C(=O)c2cc(C(F)(F)F)ccc2O[C@H]2CN(C(=O)c3ccccc3)C[C@H]21`, the “% Inhibition” value is listed as 1% and the Z score is recorded as -0.15.

As to `OCC1(CCCc2ccccc2)CCN(C2CCC2)CC1`, the “% Inhibition” value is -5% and the Z score is 0.62.

As for `O=C(NC1CCCCCC1)c1csc(-c2cccs2)n1`, the “% Inhibition” value is reported as -15% and the Z score was determined as 1.92.

Turning to `CCC(C)OCC(=O)NC(C#N)c1cccc(Br)c1` (stereo unspecified), the “% Inhibition” value is listed as -4% and the Z score came out at 0.53.

In the case of `COc1ccc(C(=O)N2CCN(c3nnc4ccc(C(F)(F)F)cn34)CC2)cc1`, the “% Inhibition” value amounted to 28% and the Z score is reported as -3.15.

`O=C1CC2(CCN(Cc3cccc(-c4ccc(Cl)cc4)c3)CC2)CN1`: the “% Inhibition” value was found to be 3% and the Z score is -0.55.

As for `O=S(=O)(c1ccccc1OC(F)(F)F)N1C2CCC1CC(Oc1ccccn1)C2` (stereo unspecified), the “% Inhibition” value was -1% and the Z score amounted to 0.14.

As for `CCn1cc(CNC(=O)CCCC2CCCCC2)c(=O)[nH]c1=O`, the “% Inhibition” value is reported as -4% and the Z score was found to be 0.65.

In the case of `O=C(Nc1ccccc1C(=O)N1CCCCC1)C1CCN(S(=O)(=O)Cc2ccccc2)CC1`, the “% Inhibition” value is listed as -6% and the Z score stood at 1.07.

Take `NC(=O)c1cncc(NCCCOC2CCCC2)n1`: the “% Inhibition” value is on record as -23% and the Z score is 2.23.

The record behind these values is ChEMBL document CHEMBL4888484, “Replenishing the malaria drug discovery pipeline: Screening and hit evaluation of the MMV Hit Generation Library 1 (HGL1) against asexual blood stage Plasmodium falciparum ,using a nano luciferase reporter read-out” (2022).
